Out of some 100,000 compounds screened, about 250 (0.25%) were called active. Inconclusive results, whose numbers are uncertain, are shown with a selection of clear calls. The call rests on the fitted dose curve; in most records, active means well fitted inhibition curve with a large enough effect; inconclusive means small, poorly fitted or top-dose-only effect; inactive means flat fitted curve, though single readings scatter. Potencies of inconclusive entries are left out as doubtful fits.
The molecules below were run against Alanine aminotransferase 2 (Homo sapiens) (UniProt Q8TD30) (assay: Primary qHTS assay for inhibitors of Glutamate pyruvate transaminase 2 (GPT2)). Conditions: Recombinant GPT2, coupled pyruvate oxidase/HRP Amplex Red fluorescence; series mostly up to 57.7 µM.
UniProt Q8TD30, sequence (Q8TD30 whole entry, looked up): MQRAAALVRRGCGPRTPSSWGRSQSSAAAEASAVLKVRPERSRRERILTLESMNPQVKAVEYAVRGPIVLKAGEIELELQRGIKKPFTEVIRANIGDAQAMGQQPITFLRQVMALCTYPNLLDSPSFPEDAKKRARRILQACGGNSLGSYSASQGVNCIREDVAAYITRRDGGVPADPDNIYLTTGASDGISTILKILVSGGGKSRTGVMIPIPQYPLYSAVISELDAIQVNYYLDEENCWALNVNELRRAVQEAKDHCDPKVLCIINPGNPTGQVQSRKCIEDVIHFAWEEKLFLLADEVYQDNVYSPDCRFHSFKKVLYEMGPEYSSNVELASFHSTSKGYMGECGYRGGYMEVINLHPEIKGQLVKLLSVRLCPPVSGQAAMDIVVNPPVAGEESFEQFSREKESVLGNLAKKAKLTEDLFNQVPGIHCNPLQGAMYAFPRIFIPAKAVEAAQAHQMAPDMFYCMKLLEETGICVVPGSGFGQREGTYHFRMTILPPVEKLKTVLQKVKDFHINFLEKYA
Method in brief: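 Fluorescence read-out: pyruvate from GPT2 turnover coupled to pyruvate oxidase, HRP and Amplex Red (0.2mM ThPP, 0.2U/mL PO and HRP, 50uM Amplex final). Substrates 250uM a-KG, 2mM L-alanine; enzyme 10ng/uL; 30 min RT.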
For `O=C(C(Cc1cccc(C(F)(F)F)c1)NS(=O)(=O)c1cc(F)c2c(c1)CCNC2)N1CCCC1` (stereo unspecified), the Potency was inconclusive [inhibitor, partial curve, poor fit]. In the case of `O=C1c2c(O)cc(O)cc2O[C@H](c2cc(O)c(O)c(O)c2)[C@H]1O`, the Potency is reported as inconclusive [inhibitor, single point]. With `Cc1ccc(-c2noc([C@@H]3Cc4nc[nH]c4CN3C(=O)NC3CCCCC3)n2)cc1` the Potency was inconclusive [inhibitor, partial curve]. With `CC(C)c1ccc(N2CC(C(=O)NCc3nc(C(C)C)no3)CC2=O)cc1` (stereo unspecified) the Potency was inconclusive [inhibitor, single point]. With `COc1ccc(CC(=O)N2CC[C@H]3CC(=O)N(Cc4ccccc4)CC[C@H]3C2)cc1` the Potency was inconclusive [inhibitor, single point]. `O=C1CC2(CCN(C(=O)C3CCCN(C(=O)c4ccccc4F)C3)CC2)Oc2ccccc2N1` (stereo unspecified) was tested, and the Potency was inconclusive [inhibitor, full curve]. For `Cc1noc(-c2cn(C3CCCN(C(=O)c4ccc5c(c4)OCO5)C3)nn2)n1` (stereo unspecified), the Potency was inconclusive [inhibitor, single point]. In the case of `CN1CCC2(C1)CN(CC1CCOCC1)c1ccc(C(=O)Nc3ccn(C)n3)cc12` (stereo unspecified), the Potency is reported as inconclusive [inhibitor, single point]. In the case of `O=C([C@@H]1C[C@H](Oc2cccnc2)CN1C(=O)c1ccc2ccccc2n1)N1CCCC1`, the Potency is reported as inconclusive [inhibitor, full curve, poor fit]. For `CCC(CC)C(=O)N1CCC(Oc2nccnc2N(C)C)C1` (stereo unspecified), the Potency was “inactive”. With `COCc1nc(N2CCN(c3ccc(OC)cc3)CC2)ncc1C(=O)O` the Potency was inconclusive [inhibitor, full curve, poor fit]. `COC(=O)c1ccc2nc(C[C@@H]3C[C@@H](C(C)C)[C@H](CN(C)C)C=C3C)[nH]c2c1` was tested, and the Potency was inconclusive [inhibitor, single point]. `COc1ccccc1-c1cccc(CN2CCC(NC(=O)NC(C)C)CC2)c1` was tested, and the Potency was inconclusive [inhibitor, full curve, poor fit]. `COc1ccc2c(c1)CCN=C2C[C@H]1CN(C(=O)C(C)(C)C)CC[C@H]1CC(=O)O` was tested, and the Potency was inconclusive [inhibitor, full curve, poor fit]. For `Cn1cc(C(=O)N2CCC(N3C(=O)C4(CCCCC4)C3c3ccncc3)CC2)cn1` (stereo unspecified), the Potency was “inactive”. For `O=C(Cc1cccnc1)N1CCc2onc(-c3ccc(F)c(F)c3)c2C1`, the Potency was inconclusive [inhibitor, partial curve, poor fit]. For `O=C(CCC1CCN(C(=O)c2ccccc2)CC1)NCCN1CCCCC1`, the Potency was inconclusive [inhibitor, single point]. With `CN(Cc1cccc(OC(F)(F)F)c1)Cc1cccc(C(F)(F)F)c1` the Potency was “inactive”. For `c1cn2cc(-c3ccc4cn[nH]c4c3)nc(Nc3ccc(N4CCOCC4)cc3)c2n1`, the Potency was inconclusive [inhibitor, partial curve, poor fit]. With `CCN(Cc1noc(C)n1)C(=O)c1coc(COc2ccc3c(c2)OCO3)n1` the Potency was inconclusive [inhibitor, single point]. In the case of `COc1ccc(C(=O)N[C@H]2CC[C@]3(C)CCC([C@H](C)C(=O)NC4CCCCC4)[C@H](O)[C@H]3[C@@H]2C)cc1` (stereo partly specified), the Potency is reported as “inactive”. For `COc1ccc(-c2nc(C3CC(=O)N(c4ccc(C)cc4)C3)no2)cc1` (stereo unspecified), the Potency was inconclusive [inhibitor, partial curve, poor fit]. In the case of `CNC(=O)c1cnc2c(c1)N(C(=O)Cc1ccc(C(C)C)cc1)CCC2`, the Potency is reported as inconclusive [inhibitor, single point]. In the case of `Cc1nc2c(c(-c3ccc(O)cc3)n1)CN(Cc1ccsc1)CCC2`, the Potency is reported as inconclusive [inhibitor, single point]. With `COC1CCCN(c2cc(-c3ccsc3)nc3c(C)noc23)C1` (stereo unspecified) the Potency was inconclusive [inhibitor, single point]. `O=C1COc2ccc(OCc3ccccc3)nc2CN1Cc1ccc(F)cc1` was tested, and the Potency was “inactive”. With `COc1ccc(CNC(=O)[C@@H]2CCC[C@@H](NC(=O)C3CC3)CN(C)C(=O)C2)cc1` the Potency was inconclusive [inhibitor, single point]. In the case of `COc1ccc(OC)c(CN2CCNc3cnc(Nc4cccnc4)cc3C2)c1`, the Potency is reported as inconclusive [inhibitor, full curve, poor fit]. In the case of `COc1ccc(-c2nc3ccc(C4=NNC(=O)CC4C)cc3[nH]2)cc1` (stereo unspecified), the Potency is reported as inconclusive [inhibitor, partial curve]. In the case of `Cc1ncc(CO)c(CN2CCCCC23Cc2ccccc2CNC3=O)c1O` (stereo unspecified), the Potency is reported as inconclusive [inhibitor, partial curve, poor fit]. For `COc1ccc(N2CCN(CCCNC(=O)C3(CCO)CC34CCOCC4)CC2)cc1` (stereo unspecified), the Potency was inconclusive [inhibitor, partial curve, poor fit]. For `C=CCn1c(=O)c2cnc(Nc3ccc(N4CCN(C)CC4)cc3)nc2n1-c1cccc(C(C)(C)O)n1`, the Potency was “inactive”. For `Oc1ccc(-c2cnc3ccc(NCc4ccco4)nn23)cc1`, the Potency was inconclusive [inhibitor, single point]. With `CCn1cc(S(=O)(=O)N2CC(c3nc(CCN(C)C(=O)C4CC4)no3)C2)cn1` the Potency was “inactive”. For `CCn1ccc2cc(C(=O)N3CCC(=O)N(CC4CC4)C(C(C)C)C3)ccc21` (stereo unspecified), the Potency was inconclusive [inhibitor, full curve]. In the case of `CCNC(=O)[C@@H]1C[C@@H](NC(=O)Cn2nc(C)cc2N)CN1C1CCOCC1`, the Potency is reported as inconclusive [inhibitor, single point]. `O=S(=O)(c1ccc2c(c1)CCC2)N1CC(n2cnnc2C2CCCO2)C1` (stereo unspecified) was tested, and the Potency was “inactive”. For `Cn1ccc2c(C(=O)NCc3cccnc3)nc(-c3ccncc3)cc21`, the Potency was inconclusive [inhibitor, full curve, poor fit]. For `O=C(NC[C@H]1O[C@H](Cc2cc(-c3ccc(F)cc3)on2)CC[C@@H]1O)c1ccc(F)cc1`, the Potency was inconclusive [inhibitor, single point]. In the case of `CCCN(CCC)C(=O)C(CCC(=O)OCCCN1CCN(CCOC(=O)Cc2c(C)n(C(=O)c3ccc(Cl)cc3)c3ccc(OC)cc23)CC1)NC(=O)c1ccccc1` (stereo unspecified), the Potency is reported as inconclusive [inhibitor, partial curve, poor fit]. With `COc1ccc(Cl)cc1NC(=O)CCC1CCCN(c2ccc(C(F)(F)F)cn2)C1` (stereo unspecified) the Potency was inconclusive [inhibitor, single point]. For `O=C(Nc1ccc2c(c1)OCO2)c1cccc2c1CCN2C(=O)Nc1ccc(F)cc1`, the Potency was “inactive”. In the case of `O=C(NC1CCN(c2cc(-c3ccc(F)cc3)[nH]n2)C1)c1c[nH]c2ccccc12` (stereo unspecified), the Potency is reported as inconclusive [inhibitor, single point]. With `COc1cccc(CNC(=O)c2cc3c(N4CCCC4)nc(C)cn3n2)c1` the Potency was inconclusive [inhibitor, single point]. In the case of `CN(Cc1ccccc1)C(=O)c1ccc2c(c1)NC(C)(COc1ccccc1)CO2` (stereo unspecified), the Potency is reported as inconclusive [inhibitor, full curve]. In the case of `COc1ccccc1N1CCN([C@@H]2[C@H](O)[C@H](CO)O[C@@H]2CNCc2cccc(Cl)c2)CC1`, the Potency is reported as inconclusive [inhibitor, single point]. For `O=c1c2ccccc2nc2n1CCc1c-2[nH]c2ccccc12`, the Potency was inconclusive [inhibitor, partial curve, poor fit]. `Cc1ccc(C)c(-c2[nH]ncc2CN2CCCC(CO)(CCc3ccccc3)C2)c1` (stereo unspecified) was tested, and the Potency was inconclusive [inhibitor, single point]. In the case of `CCN1c2cc(C(=O)Nc3cccc(Br)c3)ccc2C(=O)N2CCCCC21` (stereo unspecified), the Potency is reported as “inactive”. In the case of `O=C(c1ccc(F)c(Cl)c1)N1CCN(C(=O)c2nnn3c2COC(c2ccccc2)C3)CC1` (stereo unspecified), the Potency is reported as “inactive”. In the case of `CCCC1(CO)CCCN(Cc2cc(OC)c(OC)cc2F)C1` (stereo unspecified), the Potency is reported as inconclusive [inhibitor, full curve, poor fit]. `Oc1cc2c(c(Cl)c1O)CCNCC2c1ccccc1` (stereo unspecified) was tested, and the Potency was inconclusive [inhibitor, partial curve, poor fit]. In the case of `Cc1nn(C)c(C)c1S(=O)(=O)N1CCCC(Cn2c(C3CC3)nc3cccnc32)C1` (stereo unspecified), the Potency is reported as “inactive”. For `C=CCN1CC(C(=O)N2CCC3(CCC(=O)N(C4CC4)C3)CC2)CC1=O` (stereo unspecified), the Potency was “inactive”. In the case of `O=C1C(N2CCN(Cc3ccc[nH]3)CC2)CCN1CCc1ccccc1` (stereo unspecified), the Potency is reported as inconclusive [inhibitor, partial curve]. `COc1cc(Cn2ccnc2-c2nc[nH]c2C)cc(OC)c1OC` was tested, and the Potency was inconclusive [inhibitor, single point]. For `Cc1nc2ncnn2c(C)c1CCC(=O)N1CCCC(Nc2ccccc2)C1` (stereo unspecified), the Potency was inconclusive [inhibitor, single point]. `c1cncc(Nc2cc3c(cn2)CN(Cc2cccs2)CCN3)c1` was tested, and the Potency was “inactive”. `O=C(COc1ccc(F)cc1)N1CCCC(Cc2noc(-c3ccccn3)n2)C1` (stereo unspecified) was tested, and the Potency was inconclusive [inhibitor, full curve, poor fit]. `CCNC(=O)[C@H]1CCC[C@H]1NC(=O)c1ccc(OC)cc1` was tested, and the Potency was inconclusive [inhibitor, single point]. With `COc1ccccc1N1CCN(CCCNc2cc(=O)n(C)c(=O)n2C)CC1` the Potency was inconclusive [inhibitor, single point].

From PubChem BioAssay AID1671188 (National Center for Advancing Translational Sciences (NCATS), 2021)
Further: nearly all actives have a fitted effect of over 60% in size.
Potency means the concentration at half of the fitted maximal effect; tags describe the fitted curve by direction and shape.
